Results as given in the supplement of paper PMC8728848.
The list shows a part of the results.

How the values were obtained:
Assay in all cases: glycan array binding signal (z-score within array); higher = stronger binding
Conditions in all cases: glycan notation: IUPAC condensed, linker removed
[1] = molecular target: Neu5Ac(a2-3)GalNAc
How it was run: (§1)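 Arrays were curated from the Consortium for Functional Glycomics database, 3228 in total, and kept only where the protein sequence was available. Binding is expressed as a within-array Z-score. This score was averaged across arrays of the same protein sequence at different concentrations or buffers and across linkers, and negative values can be read as non-binding.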

[2] = molecular target: Neu5Ac(a2-3)GalNAc(b1-4)GlcNAc
How it was run: as §1

[3] = molecular target: Neu5Ac(a2-3)[GalNAc(b1-4)]Gal(b1-4)Glc
How it was run: as §1

[4] = molecular target: Neu5Ac(a2-3)[GalNAc(b1-4)]Gal(b1-4)GlcNAc
How it was run: as §1

[5] = molecular target: Neu5Ac(a2-3)[GalNAc(b1-4)]Gal(b1-4)GlcNAc(b1-3)GalNAc
How it was run: as §1

[6] = molecular target: Neu5Ac(a2-3)[Neu5Ac(a2-6)]GalNAc
How it was run: as §1

[7] = molecular target: Neu5Ac(a2-6)Gal
How it was run: as §1

[8] = molecular target: Neu5Ac(a2-6)Gal(b1-3)GlcNAc(b1-3)[Gal(b1-4)GlcNAc(b1-6)]Gal(b1-4)Glc
How it was run: as §1

[9] = molecular target: Neu5Ac(a2-6)Gal(b1-4)Glc
How it was run: as §1

[10] = molecular target: Neu5Ac(a2-6)Gal(b1-4)GlcNAc
How it was run: as §1

[11] = molecular target: Neu5Ac(a2-6)Gal(b1-4)GlcNAc(b1-2)Man
How it was run: as §1

[12] = molecular target: Neu5Ac(a2-6)Gal(b1-4)GlcNAc(b1-2)Man(a1-3)Man(b1-4)GlcNAc(b1-4)GlcNAc
How it was run: as §1

[13] = molecular target: Neu5Ac(a2-6)Gal(b1-4)GlcNAc(b1-2)Man(a1-3)[Gal(b1-4)GlcNAc(b1-2)Man(a1-6)]Man(b1-4)GlcNAc(b1-4)GlcNAc
How it was run: as §1

[14] = molecular target: Neu5Ac(a2-6)Gal(b1-4)GlcNAc(b1-2)Man(a1-3)[GlcNAc(b1-4)][Neu5Ac(a2-6)Gal(b1-4)GlcNAc(b1-2)Man(a1-6)]Man(b1-4)GlcNAc(b1-4)GlcNAc
How it was run: as §1

[15] = molecular target: Neu5Ac(a2-6)Gal(b1-4)GlcNAc(b1-2)Man(a1-3)[Man(a1-6)]Man(b1-4)GlcNAc(b1-4)GlcNAc
How it was run: as §1

[16] = molecular target: Neu5Ac(a2-6)Gal(b1-4)GlcNAc(b1-2)Man(a1-3)[Neu5Ac(a2-3)Gal(b1-4)GlcNAc(b1-2)Man(a1-6)]Man(b1-4)GlcNAc(b1-4)GlcNAc
How it was run: as §1

[17] = molecular target: Neu5Ac(a2-6)Gal(b1-4)GlcNAc(b1-2)Man(a1-3)[Neu5Ac(a2-6)Gal(b1-4)GlcNAc(b1-2)Man(a1-6)]Man(b1-4)GlcNAc(b1-4)GlcNAc
How it was run: as §1

[18] = molecular target: Neu5Ac(a2-6)Gal(b1-4)GlcNAc(b1-2)Man(a1-3)[Neu5Ac(a2-6)Gal(b1-4)GlcNAc(b1-2)Man(a1-6)]Man(b1-4)GlcNAc(b1-4)[Fuc(a1-6)]GlcNAc
How it was run: as §1

[19] = molecular target: Neu5Ac(a2-6)Gal(b1-4)GlcNAc(b1-2)Man(a1-6)Man(b1-4)GlcNAc(b1-4)GlcNAc
How it was run: as §1

[20] = molecular target: Neu5Ac(a2-6)Gal(b1-4)GlcNAc(b1-2)Man(a1-6)[Gal(b1-4)GlcNAc(b1-2)Man(a1-3)]Man(b1-4)GlcNAc(b1-4)GlcNAc
How it was run: as §1

[21] = molecular target: Neu5Ac(a2-6)Gal(b1-4)GlcNAc(b1-2)Man(a1-6)[GlcNAc(b1-2)Man(a1-3)]Man(b1-4)GlcNAc(b1-4)GlcNAc
How it was run: as §1

[22] = molecular target: Neu5Ac(a2-6)Gal(b1-4)GlcNAc(b1-2)Man(a1-6)[Man(a1-3)]Man(b1-4)GlcNAc(b1-4)GlcNAc
How it was run: as §1

[23] = molecular target: Neu5Ac(a2-6)Gal(b1-4)GlcNAc(b1-2)[Neu5Ac(a2-6)Gal(b1-4)GlcNAc(b1-4)]Man(a1-3)[GlcNAc(b1-4)][Neu5Ac(a2-6)Gal(b1-4)GlcNAc(b1-2)[Neu5Ac(a2-6)Gal(b1-4)GlcNAc(b1-6)]Man(a1-6)]Man(b1-4)GlcNAc(b1-4)GlcNAc
How it was run: as §1

[24] = molecular target: Neu5Ac(a2-6)Gal(b1-4)GlcNAc(b1-2)[Neu5Ac(a2-6)Gal(b1-4)GlcNAc(b1-4)]Man(a1-3)[GlcNAc(b1-4)][Neu5Ac(a2-6)Gal(b1-4)GlcNAc(b1-4)Man(a1-6)]Man(b1-4)GlcNAc(b1-4)GlcNAc
How it was run: as §1

[25] = molecular target: Neu5Ac(a2-6)Gal(b1-4)GlcNAc(b1-2)[Neu5Ac(a2-6)Gal(b1-4)GlcNAc(b1-6)]Man(a1-6)[Neu5Ac(a2-6)Gal(b1-4)GlcNAc(b1-2)Man(a1-3)][GlcNAc(b1-4)]Man(b1-4)GlcNAc(b1-4)GlcNAc
How it was run: as §1

[26] = molecular target: Neu5Ac(a2-6)Gal(b1-4)GlcNAc(b1-3)Gal(b1-3)GlcNAc
How it was run: as §1

[27] = molecular target: Neu5Ac(a2-6)Gal(b1-4)GlcNAc(b1-3)Gal(b1-4)GlcNAc
How it was run: as §1

[28] = molecular target: Neu5Ac(a2-6)Gal(b1-4)GlcNAc(b1-3)Gal(b1-4)GlcNAc(b1-2)Man(a1-3)[Neu5Ac(a2-6)Gal(b1-4)GlcNAc(b1-3)Gal(b1-4)GlcNAc(b1-2)Man(a1-6)]GalNAc
How it was run: as §1

[29] = molecular target: Neu5Ac(a2-6)Gal(b1-4)GlcNAc(b1-3)Gal(b1-4)GlcNAc(b1-3)Gal(b1-4)GlcNAc
How it was run: as §1

[30] = molecular target: Neu5Ac(a2-6)Gal(b1-4)GlcNAc(b1-3)Gal(b1-4)GlcNAc(b1-3)Gal(b1-4)GlcNAc(b1-2)Man(a1-3)[Neu5Ac(a2-6)Gal(b1-4)GlcNAc(b1-3)Gal(b1-4)GlcNAc(b1-3)Gal(b1-4)GlcNAc(b1-2)Man(a1-6)]GalNAc
How it was run: as §1

[31] = molecular target: Neu5Ac(a2-6)Gal(b1-4)GlcNAc(b1-3)Gal(b1-4)GlcNAc(b1-3)GalNAc
How it was run: as §1

[32] = molecular target: Neu5Ac(a2-6)Gal(b1-4)GlcNAc(b1-3)Gal(b1-4)GlcNAc(b1-3)[Neu5Ac(a2-6)Gal(b1-4)GlcNAc(b1-3)Gal(b1-4)GlcNAc(b1-6)]GalNAc
How it was run: as §1

[33] = molecular target: Neu5Ac(a2-6)Gal(b1-4)GlcNAc(b1-3)Gal(b1-4)GlcNAc(b1-6)[Gal(b1-3)]GalNAc
How it was run: as §1

[34] = molecular target: Neu5Ac(a2-6)Gal(b1-4)GlcNAc(b1-3)Gal(b1-4)[Fuc(a1-3)]GlcNAc(b1-3)Gal(b1-4)[Fuc(a1-3)]GlcNAc
How it was run: as §1

[35] = molecular target: Neu5Ac(a2-6)Gal(b1-4)GlcNAc(b1-3)GalNAc
How it was run: as §1

[36] = molecular target: Neu5Ac(a2-6)Gal(b1-4)GlcNAc(b1-3)[Neu5Ac(a2-6)Gal(b1-4)GlcNAc(b1-6)]GalNAc
How it was run: as §1

[37] = molecular target: Neu5Ac(a2-6)Gal(b1-4)GlcNAc(b1-6)GalNAc
How it was run: as §1

[38] = molecular target: Neu5Ac(a2-6)Gal(b1-4)GlcNAc(b1-6)[Gal(b1-3)GlcNAc(b1-3)]Gal(b1-4)Glc
How it was run: as §1

B1: Pwp4 (Candida glabrata) (protein)
chain: MGSSHHHHHHSSGLVPRGSHMASVGNPITVSNVCSFPKNWHRTAGFRALTARLGIGIQSDSYKELLNYPGTFQLTTQQSSTTKPNFQISGLVGNIYGLTIVPSYLLVELTGYFVPPVSGEYTFSLEGSDDAAIIFIANPSTFKCGHVEDWPTAYDNDVTVTESIHATRTIYMIEGVAYPIRIAYYNGLSLGKLQASFTDPEGVKRVDWNGYIWRYDSCDTCSYV
[1]
  glycan array binding signal (z-score): -0.545
[2]
  glycan array binding signal (z-score): 0.429
[3]
  glycan array binding signal (z-score): -0.025
[4]
  glycan array binding signal (z-score): -0.525
[5]
  glycan array binding signal (z-score): -0.286
[6]
  glycan array binding signal (z-score): 1
[7]
  glycan array binding signal (z-score): 0.575
[8]
  glycan array binding signal (z-score): -0.424
[9]
  glycan array binding signal (z-score): -0.616
[10]
  glycan array binding signal (z-score): 0.065
[11]
  glycan array binding signal (z-score): -0.742
[12]
  glycan array binding signal (z-score): -0.419
[13]
  glycan array binding signal (z-score): 1.01
[14]
  glycan array binding signal (z-score): 0.257
[15]
  glycan array binding signal (z-score): 0.089
[16]
  glycan array binding signal (z-score): -0.29
[17]
  glycan array binding signal (z-score): -0.332
[18]
  glycan array binding signal (z-score): -0.055
[19]
  glycan array binding signal (z-score): 0.851
[20]
  glycan array binding signal (z-score): -0.186
[21]
  glycan array binding signal (z-score): -0.493
[22]
  glycan array binding signal (z-score): 0.46
[23]
  glycan array binding signal (z-score): 0.648
[24]
  glycan array binding signal (z-score): -0.777
[25]
  glycan array binding signal (z-score): -0.104
[26]
  glycan array binding signal (z-score): -0.33
[27]
  glycan array binding signal (z-score): -0.127
[28]
  glycan array binding signal (z-score): 0.057
[29]
  glycan array binding signal (z-score): 0.151
[30]
  glycan array binding signal (z-score): 0.344
[31]
  glycan array binding signal (z-score): -0.514
[32]
  glycan array binding signal (z-score): -0.244
[33]
  glycan array binding signal (z-score): 0.427
[34]
  glycan array binding signal (z-score): -0.388
[35]
  glycan array binding signal (z-score): -0.535
[36]
  glycan array binding signal (z-score): -0.631
[37]
  glycan array binding signal (z-score): -0.354
[38]
  glycan array binding signal (z-score): -0.561
